# Some of the results follow. Sequences were assembled here from the parent chain. Values near 0.05 are background.
# B1: TEV protease; numbered along this chain (parent)
# chain: MGESLFKGPRDYNPISSSICHLTNESDGHTTSLYGIGFGPFIITNKHLFRRNNGTLVVQSLHGVFKVKDTTTLQQHLVDGRDMIIIRMPKDFPPFPQKLKFREPQREERICLVTTNFQTKSMSSMVSDTSCTFPSGDGIFWKHWIQTKDGQCGSPLVSTRDGFIVGIHSASNFTNTNNYFTSVPKNFMELLTNQEAQQWVSGWRLNADSVLWGGHKVFMVKPEEPFQPVKEATQL
# Variants of: B1
# Test: raw area under fraction-flipped curve 0-4 h after induction (AUC4h, not background-subtracted), DNA-recorder readout of cleavage of the substrate (dimensionless); higher = more cleavage of the substrate by the protease variant
# Details: temperature: 34 °C; time window: 0-4 h after rhamnose induction
# Experimental: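 In vivo DNA recorder in E. coli TOP10(DE3) ΔrhaA at 34 °C. Each TEVp single-site mutant (parent TEVp 0) is paired with a single-site variant of the 7-mer TEVs (canonical ENLYFQ|S). The substrate sits between flexible linkers in a Bxb1-sfGFP-TEVs-SsrA fusion, so cleavage stabilises Bxb1 and speeds flipping of a recombination array, read by NGS. The value is the raw area under the fraction-flipped curve over 0-4 h after rhamnose induction (AUC4h), with ≥20 reads per time point. It is not background-subtracted; inactive controls average about 0.047.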
# 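Also: Bxb1 expression induced with 0.2% (w/v) L-rhamnose at OD600 near 0.5, cultures sampled hourly, flipped fraction per protease–substrate barcode pair counted by paired-end Illumina sequencing.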
Variant,area with substrate ENLYDQS,area with substrate ENLYEQS,area with substrate ENLYGQS,area with substrate ENLYHQS,area with substrate ENLYIQS,area with substrate ENLYKQS,area with substrate ENLYLQS,area with substrate ENLYMQS,area with substrate ENLYNQS,area with substrate ENLYPQS,area with substrate ENLYQQS,area with substrate ENLYRQS,area with substrate ENLYVQS,area with substrate ENLYWQS,area with substrate ENLYYQS,area with substrate ENLYSQS,area with substrate ENLYTQS
MGESLFKGPRDYNPISSSICHLTNESDGHTTSLYGIGFGPFIITNKHLFRRNNGTLVVQSLHGVFKVKDTTTLQQHLVDGRDMIIIRMPKDFPPFPQKLKFREPQREERICLVTTNFQTKSMSSMVSDTSCTFPSGDGIFWKHWIQTKDGQCGSPLVSTRDGFIVGIHSASNFTNTNNYFTSVPKNFMELLTNQEAQQWVSGWRLNADSVLWGGHKVFMVKPWEPFQPVKEATQL [E223W],0.0599,0.0688,0.0883,0.0682,0.138,0.0519,0.0703,0.065,0.0593,0.0695,0.0649,0.0488,0.155,0.0995,0.0721,,
MGESLFKGPRDYNPISSSICHLTNESDGHTTSLYGIGFGPFIITNKHLFRRNNGTLVVQSLHGVFKVKDTTTLQQHLVDGRDMIIIRMPKDFPPFPQKLKFREPQREERICLVTTNFQTKSMSSMVSDTSCTFPSGDGIFWKHWIQTKDGQCGSPLVSTRDGFIVGIHSASNFTNTNNYFTSVPKNFMELLTNQEAQQWVSGWRLNADSVLLGGHKVFMVKPEEPFQPVKEATQL [W212L],0.0611,0.0656,0.0674,0.0835,0.103,0.0746,,0.0708,0.0704,0.0598,0.0719,0.0684,,0.0767,0.0669,,
MGESLFKGPRDYNPISSSICHLTNESDGHTTSLYGIGFGPFIITNKHLFRRNNGTLVVQSLHGVFKVKDTTTLQQHLVDGRDMIIIRMPKDFPPFPQKLKFREPQREERICLVTTNFQTKSMSSMVSDTSCTFPSGDGIFWKHWIQTKDGQCGSPLVSTRDGFIVGIHSASNFTNTNNYFTSVPKNFMELLTNQEAQQWVSGWRLNADSVLPGGHKVFMVKPEEPFQPVKEATQL [W212P],0.0608,0.0761,,0.0377,,0.0577,,,0.0547,0.0581,,,,,,,
MGESLFKGPRDYNPISSSICHLTNESDGHTTSLYGIGFGPFIITNKHLFRRNNGTLVVQSLHGVFKVKDTTTLQQHLVDGRDMIIIRMPKDFPPFPQKLKFREPQREERICLVTTNFQTKSMSSMVSDTSCTFPSGDGIFWKHWIQTKDGQCGSPLVSTRDGFIVGIHSASNFTNTNNYFTSVPKNFMELLTNQEAQQWVSGWRLNADSVLWGGPKVFMVKPEEPFQPVKEATQL [H215P],0.0604,0.0563,,0.0819,,0.0607,0.042,0.0656,0.082,0.0685,,0.05,0.0601,0.0678,,0.0663,
MGESLFKGPRDYNPISSSICHLTNESDGHTTSLYGIGFGPFIITNKHLFRRNNGTLVVQSLHGVFKVKDTTTLQQHLVDGRDMIIIRMPKDFPPFPQKLKFREPQREERICLVTTNFQTKSMSSMVSDTSCTFPSGDGIFWKHWIQTKDGQCGSPLVSTRDGFIVGIHSASNFTNTNNYFTSVPKNFMELLTNQEAQQWVSGWRLNHDSVLWGGHKVFMVKPEEPFQPVKEATQL [A207H],0.0645,,0.056,0.0687,,,,,0.0542,,,0.0492,,0.0661,,,
MGESLFKGPRDYNPISSSICHLTNESDGHTTSLYGIGFGPFIITNKHLFRRNNGTLVVQSLHGVFKVKDTTTLQQHLVDGRDMIIIRMPKDFPPFPQKLKFREPQREERICLVTTNFQTKSMSSMVSDTSCTFPSGDGIFWKHWIQTKDGQCGSPLVSTRDGFIVGIHSASNFTNTNNYFTSVPKNFMELLTNQEAQQWVSGWRLNADSVLWGGHKVFMVKPEEPFQPVYEATQL [K230Y],0.0627,0.0531,,0.0624,,0.0469,,,0.0755,,0.0592,0.0586,,0.0744,,0.0627,
MGESLFKGPRDYNPISSSICHLTNESDGHTTSLYGIGFGPFIITNKHLFRRNNGTLVVQSLHGVFKVKDTTTLQQHLVDGRDMIIIRMPKDFPPFPQKLKFREPQREERICLVTTNFQTKSMSSMVSDTSCTFPSGDGIFWKHWIQTKDGQCGSPLVSTRDGFIVGIHSASNFTNTNNYFTSVPKNFMELLTNQEAQQWVSGWRLNADSVLWGGHKVFMVKPEEPRQPVKEATQL [F226R],0.0645,,0.0655,,0.129,0.0305,,,0.0638,,,0.0836,0.121,0.0904,,0.0787,
MGESLFKGPRDYNPISSSICHLTNESDGHTTSLYGIGFGPFIITNKHLFRRNNGTLVVQSLHGVFKVKDTTTLQQHLVDGRDMIIIRMPKDFPPFPQKLKFREPQREERICLVTTNFQTKSMSSMVSDTSCTFPSGDGIFWKHWIQTKDGQCGSPLVSTRDGFIVGIHSASNFTNTNNYFTSVPKNFMELLTNQEAQQWVSGWRLNADSVLWGGHKVFMVKPEEPTQPVKEATQL [F226T],0.0652,,,0.0643,0.14,,,,0.0944,0.0876,0.0624,,,0.0726,0.075,,
MGESLFKGPRDYNPISSSICHLTNESDGHTTSLYGIGFGPFIITNKHLFRRNNGTLVVQSLHGVFKVKDTTTLQQHLVDGRDMIIIRMPKDFPPFPQKLKFREPQREERICLVTTNFQTKSMSSMVSDTSCTFPSGDGIFWKHWIQTKDGQCGSPLVSTRDGFIVGIHSASNFTNTNNYFTSVPKNFMELLTNQEAQQWVSGWRLNADSVWWGGHKVFMVKPEEPFQPVKEATQL [L211W],0.0662,,,0.0755,,0.0607,,0.076,,0.0706,,0.0687,0.11,,0.021,0.0722,0.0617
MGESLFKGPRDYNPISSSICHLTNESDGHTTSLYGIGFGPFIITNKHLFRRNNGTLVVQSLHGVFKVKDTTTLQQHLVDGRDMIIIRMPKDFPPFPQKLKFREPQREERICLVTTNFQTKSMSSMVSDTSCTFPSGDGIFWKHWIQTKDGQCGSPLVSTRDGFIVGIHSASNFTNTNNYFTSVPKNFMELLTNQEAQQWVSGWRLNADSVYWGGHKVFMVKPEEPFQPVKEATQL [L211Y],0.0417,0.0672,,0.0704,0.106,,0.0979,0.0877,0.076,0.0885,,,,,,0.0669,
MGESLFKGPRDYNPISSSICHLTNESDGHTTSLYGIGFGPFIITNKHLFRRNNGTLVVQSLHGVFKVKDTTTLQQHLVDGRDMIIIRMPKDFPPFPQKLKFREPQREERICLVTTNFQTKSMSSMVSDTSCTFPSGDGIFWKHWIQTKDGQCGSPLVSTRDGFIVGIHSASNFTNTNNYFTSVPKNFMELLTNQEAQQWVSGWRLYADSVLWGGHKVFMVKPEEPFQPVKEATQL [N206Y],0.0533,,,0.0597,,0.0653,,,,0.024,,0.0262,,,,,
MGESLFKGPRDYNPISSSICHLTNESDGHTTSLYGIGFGPFIITNKHLFRRNNGTLVVQSLHGVFKVKDTTTLQQHLVDGRDMIIIRMPKDFPPFPQKLKFREPQREERICLVTTNFQTKSMSSMVSDTSCTFPSGDGIFWKHWIQTKDGQCGSPLVSTRDGFIVGIHSASNFTNTNNYFTSVPKNFMELLTNQEAQQWVSGWRLNADSVLWGGHKVFMVKPEEPFQPVKEALQL [T233L],0.062,0.0667,0.0658,,0.0943,,0.0947,0.0916,0.0677,0.0711,0.0622,0.0521,0.0993,,,,0.0613
MGESLFKGPRDYNPISSSICHLTNESDGHTTSLYGIGFGPFIITNKHLFRRNNGTLVVQSLHGVFKVKDTTTLQQHLVDGRDMIIIRMPKDFPPFPQKLKFREPQREERICLVTTNFQTKSMSSMVSDTSCTFPSGDGIFWKHWIQTKDGQCGSPLVSTRDGFIVGIHSASNFTNTNNYFTSVPKNFMELLTNQEAQQWVSGWRLNADSVLWGGHKVFMVKPEEPFQMVKEATQL [P228M],0.0518,0.0574,,0.0666,,0.0529,0.116,0.0743,0.0566,,0.0314,,0.104,,,,
MGESLFKGPRDYNPISSSICHLTNESDGHTTSLYGIGFGPFIITNKHLFRRNNGTLVVQSLHGVFKVKDTTTLQQHLVDGRDMIIIRMPKDFPPFPQKLKFREPQREERICLVTTNFQTKSMSSMVSDTSCTFPSGDGIFWKHWIQTKDGQCGSPLVSTRDGFIVGIHSASNFTNTNNYFTSVPKNFMELLTNQEAQQWVSGWRLNADSVLWGPHKVFMVKPEEPFQPVKEATQL [G214P],0.0686,0.0645,,0.0506,0.0845,0.0575,0.0489,0.0594,0.0541,0.0461,,0.0513,,0.0531,0.0557,,
MGESLFKGPRDYNPISSSICHLTNESDGHTTSLYGIGFGPFIITNKHLFRRNNGTLVVQSLHGVFKVKDTTTLQQHLVDGRDMIIIRMPKDFPPFPQKLKFREPQREERICLVTTNFQTKSMSSMVSDTSCTFPSGDGIFWKHWIQTKDGQCGSPLVSTRDGFIVGIHSASNFTNTNNYFTSVPKNFMELLTNQEAQQWVSGWRLNADSVLWGGHKVFMVKPEEPFQPSKEATQL [V229S],0.064,0.0796,0.0666,,,,,0.0798,0.066,0.0632,0.0598,0.0527,0.131,,0.0837,0.0794,0.0852
MGESLFKGPRDYNPISSSICHLTNESDGHTTSLYGIGFGPFIITNKHLFRRNNGTLVVQSLHGVFKVKDTTTLQQHLVDGRDMIIIRMPKDFPPFPQKLKFREPQREERICLVTTNFQTKSMSSMVSDTSCTFPSGDGIFWKHWIQTKDGQCGSPLVSTRDGFIVGIHSASNFTNTNNYFTSVPKNFMELLTNQEAQQWVSGWRLNADSVLWGGHKVFMVKPEEPFQPTKEATQL [V229T],0.0793,0.0707,,,0.112,,,0.0836,0.0659,,,,,0.0767,,0.0851,
MGESLFKGPRDYNPISSSICHLTNESDGHTTSLYGIGFGPFIITNKHLFRRNNGTLVVQSLHGVFKVKDTTTLQQHLVDGRDMIIIRMPKDFPPFPQKLKFREPQREERICLVTTNFQTKSMSSMVSDTSCTFPSGDGIFWKHWIQTKDGQCGSPLVSTRDGFIVGIHSASNFTNTNNYFTSVPKNFMELLTNQEAQQWVSGWRINADSVLWGGHKVFMVKPEEPFQPVKEATQL [L205I],0.0653,,,,,0.0749,,,0.0519,,0.0689,,0.0751,,0.0843,,
MGESLFKGPRDYNPISSSICHLTNESDGHTTSLYGIGFGPFIITNKHLFRRNNGTLVVQSLHGVFKVKDTTTLQQHLVDGRDMIIIRMPKDFPPFPQKLKFREPQREERICLVTTNFQTKSMSSMVSDTSCTFPSGDGIFWKHWIQTKDGQCGSPLVSTRDGFIVGIHSASNFTNTNNYFTSVPKNFMELLTNQEAQQWVSGWRLNADSVLWGGHKVFMVKPEEPFQPVKFATQL [E231F],0.0644,0.061,0.0486,0.0574,,0.0695,0.08,0.0716,0.049,0.0718,0.0618,,0.133,0.084,0.0676,0.0629,
MGESLFKGPRDYNPISSSICHLTNESDGHTTSLYGIGFGPFIITNKHLFRRNNGTLVVQSLHGVFKVKDTTTLQQHLVDGRDMIIIRMPKDFPPFPQKLKFREPQREERICLVTTNFQTKSMSSMVSDTSCTFPSGDGIFWKHWIQTKDGQCGSPLVSTRDGFIVGIHSASNFTNTNNYFTSVPKNFMELLTNQEAQQWVSGWRLNADSVLWGGHKVMMVKPEEPFQPVKEATQL [F218M],0.0631,0.061,,,,,,0.0787,0.0552,,,0.0629,,0.0468,,,
MGESLFKGPRDYNPISSSICHLTNESDGHTTSLYGIGFGPFIITNKHLFRRNNGTLVVQSLHGVFKVKDTTTLQQHLVDGRDMIIIRMPKDFPPFPQKLKFREPQREERICLVTTNFQTKSMSSMVSDTSCTFPSGDGIFWKHWIQTKDGQCGSPLVSTRDGFIVGIHSASNFTNTNNYFTSVPKNFMELLTNQEAQQWVSTWRLNADSVLWGGHKVFMVKPEEPFQPVKEATQL [G202T],0.0579,,0.0456,0.069,,,,,0.0598,,0.0606,0.0582,,,,,
